Measured values from the antibiotic and cytotoxicity screens of Wong et al. (2023).
Some of the results follow.

Columns and labels:
HSkMC = human skeletal muscle cells; experiment: cytotoxicity call (relative viability < 0.9); settings: 10 µM
HepG2 = experiment: cytotoxicity call (relative viability < 0.9); settings: 10 µM
S. aureus RN4220 = experiment: growth inhibition call (relative growth <= 0.2); settings: 50 µM

Row | SMILES | cytotoxicity call (HSkMC) | cytotoxicity call (HepG2) | growth inhibition call (S. aureus RN4220)
1 | Cc1ccc(S(=O)(=O)Nc2ccc3c(c2)C(=O)N([C@@H](C)CO)C[C@@H](C)[C@H](CN(C)CC2CCCCC2)OCCCC[C@H](C)O3)cc1 | inactive | inactive | inactive
2 | O=C(CCCCCCC(=O)N/N=C/[C@@H](O)[C@H](O)[C@H](O)CO)NO | inactive | inactive | inactive
3 | CN1CCN(CC#N)C(=O)C12CCN(C(=O)c1cnccn1)CC2 | inactive | inactive | inactive
4 | O=C(C[C@@H]1CC[C@@H]2[C@H](COC[C@H](O)CN2C(=O)Nc2cc(Cl)cc(Cl)c2)O1)N1CCOCC1 | inactive | inactive | active
5 | C[C@@H]1CN([C@@H](C)CO)C(=O)Cc2cc(NC(=O)CCCN(C)C)ccc2O[C@H]1CN(C)S(C)(=O)=O | inactive | inactive | inactive
6 | C[C@@H]1CCCCO[C@@H](CN(C)C(=O)Nc2cccc3ccccc23)[C@H](C)CN([C@@H](C)CO)C(=O)c2cc(NS(=O)(=O)c3cn(C)cn3)ccc2O1 | inactive | inactive | inactive
7 | COc1ccc(N)nc1 | inactive | inactive | inactive
8 | COc1ccc(NC(=O)N(C)C[C@H]2OCCCC[C@@H](C)Oc3ccc(NC(=O)NC(C)C)cc3C(=O)N([C@H](C)CO)C[C@H]2C)cc1 | inactive | inactive | inactive
9 | O=C(N[C@@H](c1ccc(F)cc1)c1ccc2ccccc2n1)C1CCN(CCOc2ccc(F)cc2)CC1 | inactive | active | active
10 | CCCNC(=O)Nc1ccc2c(c1)C(=O)N(C)C[C@H](OC)[C@@H](C)CN(C(=O)C1CCOCC1)[C@@H](C)CO2 | inactive | inactive | inactive
11 | COC(=O)N1CCC(CN)CC1 | inactive | inactive | inactive
12 | Cc1noc(C)c1NC(=O)Nc1ccc2c(c1)C(=O)N([C@@H](C)CO)C[C@H](C)[C@@H](CN(C)C(=O)Nc1ccc(C(F)(F)F)cc1)OCCCC[C@H](C)O2 | inactive | inactive | inactive
13 | O=C(N[C@H]1C=C[C@H](CC(=O)N2CCOCC2)O[C@@H]1CO)c1ccccn1 | inactive | inactive | inactive
14 | C[C@H]1CN([C@@H](C)CO)C(=O)c2cccc(NC(=O)Nc3ccc(F)cc3)c2O[C@H]1CN(C)CC1CCCCC1 | inactive | inactive | inactive
15 | CC(C)NC(=O)Nc1ccc2c(c1)C(=O)N([C@@H](C)CO)C[C@@H](C)[C@H](CN(C)S(=O)(=O)c1ccc(Cl)cc1)O2 | inactive | inactive | inactive
16 | C[C@@H]1CN([C@H](C)CO)C(=O)c2cc(NC(=O)CCC(F)(F)F)ccc2O[C@@H]1CN(C)S(=O)(=O)c1cn(C)cn1 | inactive | inactive | inactive
17 | C[C@H](CO)N1C[C@H](C)[C@H](CN(C)Cc2ccccc2)Oc2c(NC(=O)c3cnccn3)cccc2C1=O | inactive | inactive | inactive
18 | CC(C)NC(=O)Nc1ccc2c(c1)C(=O)N([C@@H](C)CO)C[C@H](C)[C@@H](CN(C)S(=O)(=O)c1cn(C)cn1)OCCCC[C@H](C)O2 | inactive | inactive | inactive
19 | C[C@@H]1CN([C@H](C)CO)C(=O)c2cc(NC(=O)CCN3CCOCC3)ccc2O[C@H]1CN(C)C(=O)Nc1ccc2c(c1)OCO2 | inactive | active | inactive
20 | COc1ccc(S(=O)(=O)N(C)C[C@@H]2Oc3cc(C#CC4CC4)ccc3S(=O)(=O)N([C@H](C)CO)C[C@@H]2C)cc1 | inactive | inactive | inactive
21 | C[C@@H]1CCCCO[C@@H](CN(C)C(=O)c2ccccc2)[C@H](C)CN([C@H](C)CO)C(=O)c2cc(NC(=O)Nc3ccccc3)ccc2O1 | inactive | inactive | inactive
22 | C=CCOC(=O)[C@@H]1[C@H]2C(=O)O[C@H](c3ccccc3)[C@H](c3ccccc3)N2[C@H](c2ccccc2OCCO)[C@@]12C(=O)Nc1ccc(I)cc12 | inactive | inactive | inactive
23 | C[C@H]1CN([C@@H](C)CO)C(=O)c2cc(NC(=O)Nc3cccc4ccccc34)ccc2O[C@@H]1CN(C)S(=O)(=O)c1cccs1 | inactive | inactive | inactive
24 | C[C@@H]1CN([C@@H](C)CO)C(=O)Cc2cc(NS(=O)(=O)c3ccccc3)ccc2O[C@@H]1CN(C)Cc1ccc(Oc2ccccc2)cc1 | active | active | inactive
25 | COc1ccc(cc1)CN1C[C@]2(CN(C2)C(=O)C2CCOCC2)c2c(n(c3cc(ccc23)OC)C)[C@H]1CO | inactive | inactive | inactive
26 | Cn1cnc(S(=O)(=O)N[C@H]2C=C[C@H](CC(=O)NCC3CC3)O[C@H]2CO)c1 | inactive | inactive | inactive
27 | C[C@@H]1CN([C@@H](C)CO)C(=O)c2ccccc2-c2ccccc2CO[C@@H]1CN(C)C(=O)Nc1ccc(F)cc1 | inactive | inactive | inactive

Row | SMILES | cytotoxicity call (HSkMC) | cytotoxicity call (HepG2) | growth inhibition call (S. aureus RN4220)
28 | CN(C)C1CCN(C(=O)c2cnc(-c3noc4cc(-c5ccccc5C(F)(F)F)ccc34)s2)CC1 | inactive | active | active
29 | O=c1cc(CO)occ1O | inactive | inactive | inactive
30 | Cc1noc(C)c1NC(=O)Nc1ccc2c(c1)C(=O)N([C@H](C)CO)C[C@@H](C)[C@H](CN(C)Cc1ccc(C(=O)O)cc1)OCCCC[C@H](C)O2 | inactive | inactive | inactive
31 | Cc1noc(C)c1NC(=O)N(C)C[C@H]1OCCCC[C@H](C)Oc2ccc(NC(=O)Cc3ccccc3)cc2C(=O)N([C@@H](C)CO)C[C@@H]1C | inactive | inactive | inactive
32 | C[C@H]1CN([C@@H](C)CO)C(=O)c2cc(C#CC3CCCCC3)cnc2O[C@H]1CN(C)C(=O)Cc1ccccn1 | inactive | inactive | inactive
33 | COc1ccc2c3c([nH]c2c1)[C@H](CO)N(C[C@]13CCN(CC1)C(=O)c1cccnc1)C(=O)c1cccnc1 | inactive | inactive | inactive
34 | C[C@H]1CCCCO[C@H](CN(C)C(=O)Nc2ccc(F)cc2)[C@@H](C)CN([C@@H](C)CO)C(=O)c2cc(NC(=O)CCCN(C)C)ccc2O1 | inactive | inactive | inactive
35 | COCC(=O)N1C[C@H](C)[C@@H](OC)CN(C)C(=O)c2cc(NC(=O)Nc3cccc(F)c3)ccc2OC[C@H]1C | inactive | inactive | inactive
36 | CCC(=O)Nc1ccc2c(c1)OC[C@H](C)N(C(=O)CN1CCOCC1)C[C@@H](C)[C@H](OC)CN(C)C2=O | inactive | inactive | inactive
37 | C[C@@H]1CN([C@@H](C)CO)C(=O)c2ccccc2-c2ccccc2CO[C@H]1CN(C)C(=O)Nc1cccc(F)c1 | inactive | inactive | inactive
38 | C[C@@H]1CN([C@@H](C)CO)C(=O)c2cc(Br)cnc2O[C@H]1CN(C)C(=O)CCN1CCCCC1 | inactive | inactive | inactive
39 | O=C(C[C@@H]1C[C@@H]2c3cc(NS(=O)(=O)c4ccc(F)cc4)ccc3O[C@@H]2[C@@H](CO)O1)NCc1cccc(F)c1 | inactive | inactive | inactive
40 | NC(=S)N/N=C/c1ccncc1 | inactive | inactive | inactive
41 | COc1ccc([Si](C)(C)[C@@H]2[C@@H](CCn3cc(CCO)nn3)O[C@]3(C(=O)N(Cc4cccc(N5C(=O)c6cccc7cccc5c67)c4)c4ccccc43)[C@H]2C)cc1 | active | active | inactive
42 | C[C@@H]1CN([C@@H](C)CO)C(=O)c2cc(NC(=O)NC3CCCCC3)ccc2O[C@@H](C)CCCCO[C@@H]1CN(C)Cc1ccc(C(F)(F)F)cc1 | inactive | inactive | inactive
43 | C[C@H](CO)N1C[C@H](C)[C@H](CN(C)C(=O)Nc2ccc(F)cc2)OCCCC[C@H](C)Oc2ccc(NS(=O)(=O)c3ccc(F)cc3)cc2C1=O | inactive | inactive | inactive
44 | C[C@H](CO)N1C[C@H](C)[C@H](CN(C)C(=O)NC2CCCCC2)Oc2c(NC(=O)C3CCOCC3)cccc2C1=O | inactive | inactive | inactive
45 | C[C@@H]1CN([C@H](C)CO)C(=O)Cc2cc(NS(=O)(=O)c3cccs3)ccc2O[C@H]1CN(C)S(=O)(=O)c1ccccc1 | inactive | inactive | inactive
46 | Cc1ccccc1S(=O)(=O)N1C[C@H](O)COC[C@@H]2O[C@@H](CC(=O)N3CCC(Cc4ccccc4)CC3)CC[C@H]21 | inactive | inactive | inactive
47 | O=C(C[C@H]1C[C@H]2c3cc(NC(=O)C4CCOCC4)ccc3O[C@H]2[C@H](CO)O1)NCc1ccc(Cl)cc1 | inactive | inactive | inactive
48 | COc1ccccc1S(=O)(=O)N(C)C[C@H]1OCc2cnnn2CCCC(=O)N([C@H](C)CO)C[C@@H]1C | inactive | inactive | inactive
49 | COc1cc([C@H]2OC[C@@H]3[C@H]2CO[C@H]3c2cc(OC)c(O[C@@H]3O[C@H](CO)[C@@H](O)[C@H](O)[C@H]3O)c(OC)c2)cc(OC)c1OC | inactive | inactive | inactive
50 | COc1ccc(S(=O)(=O)N(C)C[C@@H]2Oc3c(NC(=O)Nc4c(C)noc4C)cccc3C(=O)N([C@@H](C)CO)C[C@@H]2C)cc1 | inactive | inactive | inactive
51 | C[C@H](CO)N1C[C@H](C)[C@@H](CN(C)C(=O)Nc2ccc(F)cc2)Oc2c(NS(=O)(=O)c3cn(C)cn3)cccc2C1=O | inactive | inactive | inactive
52 | Cc1cccc(N(CC(=O)O)CC(=O)O)c1 | inactive | inactive | inactive
53 | CC(=O)OC[C@@H]1O[C@H](O[C@@H]2CC[C@]34C[C@]35CC[C@]3(C)[C@@H]([C@@H](C)[C@H]6C[C@@H](O)C(C)(C)O6)CC[C@@]3(C)[C@H]5CC[C@H]4[C@H]2C)[C@@H](O)[C@H](O)[C@@H]1O[C@H]1O[C@@H](CO)[C@@H](O[C@H]2O[C@@H](CO)[C@@H](O)[C@@H](O)[C@@H]2O)[C@@H](O[C@H]2O[C@@H](C)[C@@H](O)[C@@H](O)[C@@H]2O)[C@@H]1O | inactive | inactive | inactive
